# Measurements reported in PubChem BioAssay AID588855 (National Center for Advancing Translational Sciences (NCATS), 2011).
# About 5,000 (1.2%) of roughly 410,000 compounds were called active. Inconclusive results, whose numbers are uncertain, are shown with a selection of clear calls. The call rests on the fitted dose curve; in most records, active means well fitted inhibition curve with a large enough effect; inconclusive means small, poorly fitted or top-dose-only effect; inactive means no such curve, though single readings can be large or run the other way. Potencies of inconclusive entries are doubtful fits and often do not repeat.
# Experiment: qHTS for Inhibitors of TGF-b; further: nearly all actives have a fitted effect of over 65% in size
# Details: HepG2 CAGA-GFP TGF-b/SMAD3 reporter, GFP fluorescence, 18 h, TGF-beta stimulated, 500 pg/mL final; series mostly up to 46.1 µM; activity, negative = inhibition: at the top concentration
# Outline: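 Smad-responsive CAGA-GFP expression was quantified in HEPG2 cells exposed to compounds and 500 pg/mL final TGF-beta for 18 h at 37 degrees C; unstimulated wells defined full inhibition.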
# On the % scale 0 is the no-effect control and ±100 the full control effect; potency means the concentration at half of the fitted maximal effect; tags describe the fitted curve by direction and shape.
Structure (SMILES),Potency,"activity, negative = inhibition"
Cc1nn(C(C)(C)C)c(N)c1-c1ccccc1,"inconclusive: 0.891 µM [inhibitor, partial curve, poor fit]",
Cc1cn([C@H]2C[C@H](O)[C@@H](CNCc3cccc(OC4CCCC4)c3)O2)c(=O)[nH]c1=O,"inconclusive: 3.55 µM [inhibitor, single point]",
COc1ccc(OCc2nnc(SCC(=O)N3CCCc4ccccc43)n2-c2ccc(C)cc2)cc1,"inconclusive: 35.5 µM [inhibitor, single point]",
COc1cc(NC(=O)Nc2nc(C(N)Cc3ccc(C(F)(F)F)cc3)cs2)cc(OC)c1OC (stereo not drawn),active: 11.2 µM,
CCOC(=O)c1cc(-c2ccccc2)n(CCCC(=O)Nc2cccc(C)c2C)c1C,"inconclusive: 1.26 µM [inhibitor, partial curve]",
CCN(CC)S(=O)(=O)c1ccc(Cl)c(C(=O)Nc2ccc(Cl)cc2[N+](=O)[O-])c1,"inconclusive: 8.91 µM [inhibitor, partial curve, poor fit]",
COc1cc(C=O)ccc1OCc1ccccc1Br,,inactive: -19%
Cc1cc(C)cc(NC(=S)NN)c1,,inactive: -6.01%
CCC/C(=N\NC(=O)CCC(=O)NCc1ccccc1)c1ccccc1,"inconclusive: 5.62 µM [inhibitor, single point]",
c1ccc2c(c1)nc1sccn12,"inconclusive: 25.1 µM [inhibitor, single point]",
Cc1ccc(NC(=O)c2c(C)noc2C)cc1S(=O)(=O)N1CCOCC1,,inactive: -7.1%
Cc1cc(C)c2ccccc2n1,,inactive: -1.8%
Cc1csc(CNc2ncnc3ccc(-c4ccccc4Cl)cc23)c1,,inactive: -21.2%
COC(=O)c1ccc(NC(=O)CN2C(=O)CCc3cc(S(=O)(=O)N4CCCCC4)ccc32)cc1,"inconclusive: 5.01 µM [inhibitor, partial curve, poor fit]",
O=C(NCCSCc1c(F)cccc1Cl)c1ccc(CN2CCOCC2)cc1,,inactive: -2.95%
O=C(Nc1ccc(Oc2ccc(NC(=O)Nc3ccc([N+](=O)[O-])cc3)cc2)cc1)Nc1ccc([N+](=O)[O-])cc1,"inconclusive: 35.5 µM [inhibitor, single point]",
Cc1cc(-c2ccc(C)c(S(=O)(=O)N3CCC(C)CC3)c2)on1,"inconclusive: 1.12 µM [inhibitor, partial curve, poor fit]",
COc1ccc(NC(=O)CCC(=O)OCc2ccc(C(=O)Oc3ccc(Cl)cc3)cc2)cc1,"inconclusive: 35.5 µM [inhibitor, single point]",
CCc1cc(C(=O)c2ccc(OC)cc2)c(NC(=O)CCC(=O)O)s1,,inactive: -2.24%
COc1cc(S(=O)(=O)N(Cc2ccc(C)cc2)C2CCCCC2)ccc1-n1cnnn1,,inactive: -12.8%
Cc1ccc(CC(CC(=O)O)C(=O)Nc2ccc(Cl)cc2)cc1 (stereo not drawn),,inactive: -3.8%
CC(C)Cn1cc(NC(=O)Nc2cccc(C(F)(F)F)c2)c2ccccc2c1=O,"inconclusive: 25.1 µM [inhibitor, single point]",
Cc1ccnc(NS(=O)(=O)c2ccc(NC(=O)CC(C)c3ccccc3)cc2)n1 (stereo not drawn),"inconclusive: 0.447 µM [inhibitor, full curve]",
O=C(Nc1cccnc1)c1cc(-c2cc(Cl)ccc2O)n[nH]1,,inactive: -7.6%
Oc1ccc(Br)cc1-c1cc(-c2ccc(Cl)cc2)n[nH]1,"inconclusive: 12.6 µM [inhibitor, partial curve, poor fit]",

Structure (SMILES),Potency,"activity, negative = inhibition"
COc1ccc([C@@H]2COc3c(ccc4c3C=CC(C)(C)O4)C2)c(OC)c1,,inactive: 6.38%
CCn1c(C(=O)N2CCC(C(=O)N3CCN(c4cc(C)ccc4C)CC3)CC2)cc2sccc21,"inconclusive: 22.4 µM [inhibitor, single point]",
Cc1ccc2nc3c(c(N)c2c1)CCN3c1ccccc1,"inconclusive: 35.5 µM [inhibitor, single point]",
Cc1ccc(CCNC(c2ccc(F)cc2)c2nnc(-c3ccccc3Cl)o2)cc1 (stereo not drawn),"inconclusive: 5.01 µM [inhibitor, partial curve, poor fit]",
CCc1ccc(/C=N/Nc2ncnc3nc[nH]c23)cc1,,inactive: -31.8%
O=C1/C(=C/c2ccncc2)CCC/C1=C\c1ccncc1,active: 3.16 µM,
COCCCNCCCCOc1ccc(Br)cc1Cl,,inactive: -12.9%
COc1ccc(C(=O)NC2CC(=O)N(c3ccc4c(c3)OCCO4)C2)cc1 (stereo not drawn),,inactive: -10.5%
O=C(CC1CCCC1)Nc1nc2ccccc2[nH]1,"inconclusive: 0.631 µM [inhibitor, full curve, poor fit]",
CCCC(=O)OCC(=O)Nc1ccc2c(c1)OCO2,,inactive: 7.63%
Cc1ccc(S(=O)(=O)N2CCOCC2)cc1C(=O)NC(=S)N(Cc1ccccc1)C(C)C,"inconclusive: 11.2 µM [inhibitor, partial curve]",
COc1ccc2nc(NC(=O)Nc3ccccc3)sc2c1,"inconclusive: 35.5 µM [inhibitor, partial curve, poor fit]",
CCn1cc(Cl)c(C(=O)N2N=C(c3ccc4ccccc4c3)CC2c2ccccc2O)n1 (stereo not drawn),active: 7.08 µM,
O=S(=O)(c1ccc(Cl)cc1)N1CCN(c2ncnc3sccc23)CC1,"inconclusive: 22.4 µM [inhibitor, single point]",
CC(C)Oc1ccc(CNC(=O)C2CCN(c3nc4ccccc4nc3C(F)(F)F)CC2)cc1,"inconclusive: 3.55 µM [inhibitor, partial curve, poor fit]",
COc1cc(/C=C/C(=O)OC(C)C(=O)NC2CCCCC2C)cc(Cl)c1OC (stereo not drawn),"inconclusive: 6.31 µM [inhibitor, single point]",
COCCn1c(-c2ccc3ccccc3c2)nc2c1c(=O)[nH]c(=O)n2CC(C)C,"inconclusive: 35.5 µM [inhibitor, single point]",
Cc1ccc(S(=O)(=O)N2CCN(C(=O)C3CCN(C(=O)c4ccccc4C)CC3)CC2)cc1C,"inconclusive: 2.51 µM [inhibitor, full curve, poor fit]",
Cc1ccccc1N1CCN(C2CCCN(C(=O)c3noc4c3CCCC4)C2)CC1 (stereo not drawn),"inconclusive: 35.5 µM [inhibitor, single point]",
O=C(COC(=O)c1cccnc1Cl)c1cccc(Cl)c1,"inconclusive: 5.62 µM [inhibitor, single point]",
Cc1ccc(-c2nc3cc(Cl)ccc3o2)cc1NC(=O)c1cc([N+](=O)[O-])ccc1N1CCOCC1,,inactive: -40.4%
CCOC(=O)c1ccc(NC(=O)CSc2nnc(Cn3c(=O)sc4ccccc43)n2C)cc1,,inactive: 14.5%
CCN(CC)C(=O)CSc1nc2c(sc(=S)n2-c2ccccc2)c(=O)n1Cc1ccco1,,inactive: -4.58%
O=S(=O)(c1ccc(Cl)cc1)c1cnc(-c2cccnc2)nc1-c1ccccc1,"inconclusive: 35.5 µM [inhibitor, single point]",
CCN(CC)CCCNC(=O)Cc1ccc(NC(=O)N2CCCCc3ccccc32)cc1,"inconclusive: 5.62 µM [inhibitor, single point]",

Structure (SMILES),Potency,"activity, negative = inhibition"
N#CC(c1ccncc1)(c1ncc(C(F)(F)F)cc1Cl)N1CCOCC1 (stereo not drawn),,inactive: -10.2%
COc1ccc(CCNC(=O)CCCc2ccccc2)cc1OC,,inactive: -6.34%
COc1cc2c(cc1OC)CN(CCOc1ccc(Br)cc1)CC2,,inactive: -15.1%
CCCCCCCN1CCN=C1N(C)C,"inconclusive: 35.5 µM [inhibitor, single point]",
CC1=CC(C)C2COC(c3ccc[n+](C)c3)C1C2C (stereo not drawn),,inactive: -6.89%
O=C(Cc1c(Cl)cccc1Cl)OCC(=O)c1ccc[nH]1,,inactive: -1.96%
COc1ccc(-c2sc3cc4c(cc3c2-c2ccc3c(c2)OCCO3)OCO4)cc1,"inconclusive: 0.141 µM [inhibitor, full curve, poor fit]",
Cc1cc(C(=O)N2CCCC(C(=O)c3cc(F)ccc3F)C2)c(C)o1 (stereo not drawn),,inactive: 1.47%
Cc1ccc(C2=Nc3ccccc3N(CC(=O)Nc3ccccc3F)C(=O)C2)cc1C,,inactive: -15.4%
O=C(O)Cn1nnnc1SCC(=O)Nc1ccccc1F,"inconclusive: 17.8 µM [inhibitor, single point]",
CC(C)O/C(=N\S(=O)(=O)c1ccc(Cl)cc1)c1ccccc1,,inactive: 17.9%
Nc1ncnc2c1ncn2[C@@H]1O[C@H](COP(=O)(O)OP(=O)(O)OP(=O)(O)O)[C@@H](O)[C@H]1O,,inactive: 30.8%
Cc1cccc(NC(=O)c2ccc(Cn3cc(C(F)(F)F)ccc3=O)cc2)c1,"inconclusive: 11.2 µM [inhibitor, partial curve, poor fit]",
O=C(NCc1cccs1)c1noc2c1CCCC2,,inactive: -4.19%
C[C@]12CCC3C(CC[C@H]4CCCC[C@]34C)C1CC[C@@]2(O)CNCCO (stereo partly drawn),,inactive: -3.24%
CCOC(=O)c1c(C)n(S(=O)(=O)c2ccc(C)cc2C)c2ccc(NS(=O)(=O)c3ccc(C)cc3C)cc12,"inconclusive: 11.2 µM [inhibitor, partial curve, poor fit]",
CC(=O)Nc1ccc(NS(=O)(=O)c2cc(-c3cnc(C4CC4)o3)ccc2C)cc1,,inactive: 7.76%
Cc1c(C(=O)OC2CCCCC2)[nH]c2c1C(=O)CC(C)(C)C2,"inconclusive: 15.8 µM [inhibitor, single point]",
CCc1c(C)sc(NC(=O)CSc2nc3c(c(C(F)(F)F)n2)CCc2ccccc2-3)c1C#N,,inactive: -11.6%
CC(C)CC(=O)Nc1nnc(SCC(=O)NC2CCCC2)s1,"inconclusive: 5.62 µM [inhibitor, single point]",
Cc1cccc(NC(=O)CSCC(=O)Nc2cc(C(F)(F)F)ccc2N2CCOCC2)c1,"inconclusive: 15.8 µM [inhibitor, partial curve, poor fit]",
Cc1nc2ccccn2c1C(=O)N/N=C/c1ccc2c(c1)OCO2,,inactive: -28.7%
CC(=O)Oc1oc(-c2ccccc2)nc1C=Nc1ccccc1,"inconclusive: 7.94 µM [inhibitor, single point]",
